PubChem BioAssay (NCATS)
Some of the results follow. The main result of the screen is listed elsewhere. These columns were measured beside it and carry no call. The list favours compounds with an active or inconclusive main result. The note in brackets gives the kind of curve behind each potency; many fits are weak. Bridge positions count the residues as written; N and C are the ends. Square brackets hold non-standard residues; d marks the D form. Peptide text beside a SMILES is read from it. * marks the point of attachment. Octanoyl(6-Me) = CCC(C)CCCCC(=O)*; Dab = NCC[CH](N)C(=O)O

Experiment: qHTS Assay for Lipid Storage Modulators (AID 1519)
Conditions: Drosophila S3 cells, BODIPY lipid droplet/cell ratio, laser cytometry, cells loaded with oleic acid
Method in brief: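 Cells seeded at 5,000 per well were treated with compounds over a concentration series and loaded with oleic acid (400 uM, as added). Lipid droplet fluorescence (488 nm excitation, 500-530 nm channel) was read by laser-scanning cytometry and normalized to 20 uM Triacsin C.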

[1] = measured here: cell count channel max response
[2] = measured here: cell number channel AC50
[3] = measured here: lipid (BODIPY) channel AC50
[4] = measured here: lipid channel max response
Tags give direction and shape of the fitted curve.

Structure (SMILES) | max response [1] | AC50 [2] | AC50 [3] | max response [4]
O=C1c2ccccc2S(=O)(=O)N1CCCCN1CCN(c2ncccn2)CC1 | 72.6% | 12.6 µM [rising, partial curve] | 14.1 µM [rising, partial curve] | 95.5%
COc1cc2c(cc1OC)C1C(=O)c3c(O)cc4c(c3OC1CO2)C=CC(C)(C)O4 (stereo not drawn) | -59.3% | 12.6 µM [falling, partial curve] | 1.41 µM [falling, full curve] | -104%
Clc1cccc(Nc2nnc(-c3ccccc3)c3ccccc23)c1 | 62.6% | 0.891 µM [rising, full curve] | 0.708 µM [rising, full curve] | 83.3%
COc1ccc(C(=O)N2CCC3(CCCN(c4cccc(-c5ccccc5)c4)C3)CC2)cc1 | 19.2% | 2.82 µM [rising, partial curve, poor fit] | 2.51 µM [rising, partial curve, poor fit] | -31.1%
Cc1[nH]ccc2c1[nH]c1cc(=O)ccc12 | 111% | 0.794 µM [rising, full curve] | 0.891 µM [rising, full curve] | 142%
CCNc1ncc2nc(CCc3ccccc3)c(=O)n(Cc3ccc(F)cc3)c2n1 | 61.2% | 2.82 µM [rising, partial curve, poor fit] | 1 µM [rising, full curve, poor fit] | 30.6%
CC1(C)CC[C@]2(C(=O)O)CC[C@]3(C)C(=CCC4[C@@]5(C)CC[C@H](O)C(C)(C)[C@@H]5CC[C@]43C)C2C1 (stereo partly drawn) | 68.5% | 15.8 µM [rising, partial curve, poor fit] | 17.8 µM [rising, partial curve, poor fit] | 88.7%
Clc1ccccc1-c1nc(Nc2ccncc2)c2ccccc2n1 | 22.3% | 0.224 µM [rising, full curve, poor fit] | 0.224 µM [rising, full curve, poor fit] | 23.3%
CCOC(=O)C1=C(C)NC(C)=C(C(=O)OC)[C@H]1c1cccc([N+](=O)[O-])c1 | 86.4% | 2.82 µM [rising, full curve] | 3.16 µM [rising, full curve] | 119%
CCC(C)CCCCC(=O)NC(CCN)C(=O)NC(C(=O)NC(CCN)C(=O)NC1CCNC(=O)C(C(C)O)NC(=O)C(CCN)NC(=O)C(CCN)NC(=O)C(CC(C)C)NC(=O)C(Cc2ccccc2)NC(=O)C(CCN)NC1=O)C(C)O (stereo not drawn) ({Octanoyl(6-Me)}-[Dab]T[Dab][Dab][Dab]FL[Dab][Dab]T; lactam 4-C; configuration not given here) | 32.7% | 11.2 µM [rising, partial curve, poor fit] | 25.1 µM [rising, partial curve, poor fit] | 54.3%
Cc1cc(/C=C/c2ccc3cc(N(C)C)ccc3[n+]2C)c(C)n1-c1ccccc1 | -89.4% | 39.8 µM [falling, single point] | 39.8 µM [falling, single point] | -103%
CCNc1ncc2nc(-c3ccc(Cl)cc3)c(=O)n(-c3ccc(OC)cc3)c2n1 | 31.4% | 0.891 µM [rising, full curve, poor fit] | 0.562 µM [rising, full curve, poor fit] | 28.4%
CN(C)c1ncc2ncc(=O)n(C)c2n1 | 27% | 2 µM [rising, full curve, poor fit] | 2.51 µM [rising, full curve, poor fit] | 36.3%
N#CCCn1c(=O)c(-c2ccccc2)nc2cnc(Oc3ccccc3)nc21 | 19.9% | 5.01 µM [rising, partial curve, poor fit] | 0.0224 µM [rising, full curve] | 31.9%
CC(C)Oc1ccc2c(=O)c3cc(C(=O)O)ccc3oc2c1 | 69.4% | 14.1 µM [rising, partial curve] | 14.1 µM [rising, partial curve] | 89.2%
COc1cccc(Nc2ncc3nc(-c4cc(F)cc(F)c4)c(=O)n(CCC#N)c3n2)c1 | 15.6% | 0.00891 µM [rising, full curve, poor fit] | 0.126 µM [rising, full curve] | -10.6%
COc1cccc(Cn2c(=O)c(-c3cccs3)nc3cnc(N4CCOCC4)nc32)c1 | 24.8% | 2.51 µM [rising, full curve, poor fit] | 2.82 µM [rising, partial curve, poor fit] | 11.1%
COc1ncc2nc(CCc3ccccc3)c(=O)n(C3CC3)c2n1 | 28.2% | 0.0141 µM [rising, full curve, poor fit] | 0.02 µM [rising, full curve, poor fit] | 40.5%
COc1ccc2[nH]cc(CCNc3ncncc3-c3ccccc3Cl)c2c1 | 12.6% | 2.51 µM [rising, partial curve, poor fit] | 1.58 µM [rising, partial curve, poor fit] | 13.2%

Structure (SMILES) | max response [1] | AC50 [2] | AC50 [3] | max response [4]
CC[C@]1(O)C[C@@H]2CN(CCc3c([nH]c4ccccc34)[C@](C(=O)OC)(c3cc4c(cc3OC)N(C=O)[C@H]3[C@@](O)(C(=O)OC)[C@H](C(=O)OC)[C@@]5(CC)C=CCN6CC[C@]43[C@H]65)C2)C1 | 57.9% | 2 µM [rising, full curve, poor fit] | 7.94 µM [rising, partial curve, poor fit] | 77.2%
C=C(CO)C1Cc2c(ccc3c(=O)c4c(oc23)COc2cc(OC)c(OC)cc2-4)O1 (stereo not drawn) | 46.5% | 6.31 µM [rising, full curve, poor fit] | 6.31 µM [rising, full curve, poor fit] | 58.4%
Cc1ccccc1-c1cc(NCc2cccnc2)ncn1 | 36.3% | 6.31 µM [rising, full curve, poor fit] | 5.62 µM [rising, full curve] | 43.7%
Cc1cnc(CNc2nc(-c3ccccc3Cl)nc3ccccc23)cn1 | 46.8% | 1.41 µM [rising, full curve] | 1.41 µM [rising, full curve] | 54.7%
COc1ncc2ncc(=O)n(CCc3ccccc3)c2n1 | 15.4% | 3.55 µM [rising, partial curve, poor fit] | 2.51 µM [rising, partial curve, poor fit] | 23.1%
Cc1cnc(CNc2cc(-c3ccc4c(c3)OCO4)ncn2)cn1 | 36.2% | 1 µM [rising, full curve] | 0.501 µM [rising, full curve, poor fit] | 40.2%
Cc1nc2cnc(OCc3ccccc3)nc2n(CCC#N)c1=O | 19.4% | 0.0224 µM [rising, full curve, poor fit] | 0.0224 µM [rising, full curve] | 27.6%
O=C(O)C1CCCNC1 (stereo not drawn) | 39% | 39.8 µM [rising, single point] | 39.8 µM [rising, single point] | 40.6%
O=c1c(O)c(-c2cccc(O)c2)oc2ccccc12 | 15.6% | 4.47 µM [rising, full curve] | 4.47 µM [rising, full curve] | 23.3%
COc1ncc2nc(CCc3ccccc3)c(=O)n(-c3ccccc3)c2n1 | 34.2% | 2.82 µM [rising, full curve] | 2.82 µM [rising, full curve] | 39.8%
O=C(c1ccco1)N1CCC2(CCCN(c3ccncc3)C2)CC1 | 6.02% | 7.08 µM [rising, single point] | 6.31 µM [rising, single point] | 14.1%
CC(C)=CCc1c(O)cc2occ(-c3ccc4c(c3)OCO4)c(=O)c2c1O | -64.5% | 22.4 µM [falling, partial curve] | 25.1 µM [falling, single point] | -102%
OCCNCCCOc1cccc(Cl)c1Cl | -7.53% | 0.501 µM [falling, partial curve, poor fit] | 5.01 µM [falling, partial curve, poor fit] | -12.7%
CN1CCc2cccc3c2[C@@H]1Cc1ccc(O)c(O)c1-3 | 92.6% | 25.1 µM [rising, partial curve] | 25.1 µM [rising, partial curve] | 127%
CCN1CCC[C@H]1CNC(=O)c1c(OC)ccc(Br)c1OC | 30.5% | 31.6 µM [rising, single point] | 31.6 µM [rising, single point] | 31.3%
O[C@H](CCCN1CCN(c2ncc(F)cn2)CC1)c1ccc(F)cc1 | 59.3% | 12.6 µM [rising, partial curve, poor fit] | 14.1 µM [rising, partial curve, poor fit] | 71.6%
Cc1ccc(C(=O)Cn2c3c(sc2=N)CCCC3)cc1 | 99% | 11.2 µM [rising, partial curve] | 15.8 µM [rising, partial curve] | 130%
CC(C(=O)O)c1ccc(N2Cc3ccccc3C2=O)cc1 (stereo not drawn) | 38.9% | 39.8 µM [rising, single point] | 39.8 µM [rising, single point] | 64.7%
